Experimental data reported in article PMC12136788.
The other results are listed elsewhere or left out.

B1: chr19:2274630:2275679:-|three_prime_utr|ENSG00000188305|control|control|control (ssRNA)
RNA: GGGAGUUCUACAGUCCGACGAUCACACCUGGUCCAGGCCUGCCCAGGAGGCAGGGCUGGGGCUGAGGUCAGCGUCUCCAUGAUAGCCAAGACACCCUCUUCCUGCAGAGUCCAGGAGCGCAGCAGAGAGAGCAAUGCCCCACUCAACAGAGGAUUGAGCAUCA
B2: chr2:119156242:119156801:-|three_prime_utr|ENSG00000144119|control|control|control (ssRNA)
RNA: GGGAGUUCUACAGUCCGACGAUCCAAGGGAGGAAGGGACGCCCGAGCCCUUGAGGCGGCGGCACAGACUUUGCAAACCUGAUUAGACUGGACAGGCAGGGCCGGGAGCCUGCCCUCCUCAGACAGCCUCCUCCCAGUGCCUAGCAACAGAGGAUUGAGCAUCA
B3: ENSG00000136451:be:win_2701|3pUTR|ENSG00000136451|bound_else_gene|NA|bound_elsewhere_windowed (ssRNA)
RNA: GGGAGUUCUACAGUCCGACGAUCUGUAAAUAUGGACAUCACUUUUUUUUUCUUUGAGAAAACACUUGUAUCAGCUUUGUGGUGUUUUCAGGGAGACAGCUGUCUGCAUUCCCUGUAGAAACCCAGCAAUGAUUAUGCACGUUGCAACAGAGGAUUGAGCAUCA
B4: chr17:77200548:77200649:+|CDS|ENSG00000129657|msi1|total|mutant (ssRNA)
RNA: GGGAGUUCUACAGUCCGACGAUCUAUUGACAAAGCCAGAGAGAUCAUGUGUCAGUCUUUGACGUGGAGAAAGCAGCAUCAGGCCGACUACAUUCUUGAAACCUGGACCCCUCCUCAGGUCCUUCAGGAUUACUACGCGGGAGGCAACAGAGGAUUGAGCAUCA
B5: chr12:96943601:96943709:+|CDS|ENSG00000139350|unk|FALSE|unique (ssRNA)
RNA: GGGAGUUCUACAGUCCGACGAUCAACUCAGUGUUUCCUCCAAGAAAAAAUCCAGUAACUUCAAGUACUUCAGUAUUGCAUUCUAGUCCUCUUAAUGUUUUUAUGGGAUCUCCAGGGAAAGAGGAAAAUGAAAACCGUGAUCUACAACAGAGGAUUGAGCAUCA
B6: chr10:30312946:30313047:-|3pUTR|ENSG00000107951|unk|total|mutant (ssRNA)
RNA: GGGAGUUCUACAGUCCGACGAUCUCUUAUUCACAUAUAAAUUAAAGUGGGUUGGUACUGAUAUCAAAAAAUGUUUAUGUUUUCCGAACAGACAUUUCAGUCACUGCAUUCUCCGGUAUUCCAAACCAAAUAUGAUGACAUCAACAACAGAGGAUUGAGCAUCA
B7: chr15:34983303:34983404:-|CDS|ENSG00000198146|msi1|FALSE|unique (ssRNA)
RNA: GGGAGUUCUACAGUCCGACGAUCGCUGAAAACAAUUUAAAAAUGCUAAAGAUUCAACAGUGUGUGGUAGCCAACAAACUACCUAGAAACAGGCCAUAUGUUUGCAAUAUUUGUUUUAAGCACUUUGAAACACCAUCAAAAUUACAACAGAGGAUUGAGCAUCA
B8: chr1:108699644:108699745:+|CDS|ENSG00000134186|unk|FALSE|bound_elsewhere (ssRNA)
RNA: GGGAGUUCUACAGUCCGACGAUCGAUUCCAAGAAAGAGAAAAAACACAGUAGAAGCAGAAGCAGAGAAAGGAAACACAGAAGUAGGAGUCGAAGUAGAAAUGCAGGGAAACGAAGUAGAAGUAGAAGCAAAGAGAAAUCAAGUCAACAGAGGAUUGAGCAUCA
B9: chr3:138945594:138946722:-|CDS|ENSG00000183770|control|control|control (ssRNA)
RNA: GGGAGUUCUACAGUCCGACGAUCCCCGGCCGCCUCGUACGGGCCGUACACACGCGUGCAGAGCAUGGCGCUGCCCCCCGGCGUAGUGAACUCGUACAAUGGCCUGGGAGGCCCGCCGGCCGCACCCCCGCCUCCGCCGCACCCCAACAGAGGAUUGAGCAUCA
B10: ENSG00000173068:stop:overlap|stop_codon|ENSG00000173068|stop_codon|NA|stop_codon (ssRNA)
RNA: GGGAGUUCUACAGUCCGACGAUCGAAAUCGGCACAGUCAGAACCCUAAUCUCCACAAAAACAUUCCCUUCACUUCAGUAGAUUAGUCUCAGAAUGGACACUACAAAUGCCAGCUCUCACCAGAUGGCCUACGUGUUUGAACUGCAACAGAGGAUUGAGCAUCA
B11: chr1:109310645:109310811:-|3pUTR|ENSG00000134243|msi1|FALSE|unique (ssRNA)
RNA: GGGAGUUCUACAGUCCGACGAUCAGGGUAACGGGGCUGGCCUGGCAUUAGUCAUUAUUUAGUUUCCAGGCCAACCAUCCAGAUAGAGAUUCCCUCUUUCCUUUGAGCAGUGCUCUCAAGAGCUCCGUGCCUGUCCACAAUGACCAACAGAGGAUUGAGCAUCA
B12: chr8:78602526:78602623:+|3pUTR|ENSG00000171033|msi1_unk|FALSE|overlapping (ssRNA)
RNA: GGGAGUUCUACAGUCCGACGAUCUUGUAUGUUGAUGAGUUGAUUAAGUCUAACAGAUUCAUCAAGACUCCAUUGCUUUAUUAUAGAGACAUUUGAAAAUAUCCAUUAAUGUGAAUAUCACCUGAAUUCAGUCUGUUUGGUGUCCAACAGAGGAUUGAGCAUCA
B13: chr16:56943551:56943652:+|3pUTR|ENSG00000051108|msi1|FALSE|unique (ssRNA)
RNA: GGGAGUUCUACAGUCCGACGAUCUGCAUGUCUAUGCUUGAGGAACUUUUCCAAAUGUGUGUGUCUGCAUGUGUGUUUGUACAUAGAAGUCAUAGAUGCAGAAGUGGUUCUGCUGGUACGAUUUGAUUCCUGUUGGAAUGUUUACAACAGAGGAUUGAGCAUCA
B14: chr8:58579689:58579790:+|CDS|ENSG00000137575|msi1|total|mutant (ssRNA)
RNA: GGGAGUUCUACAGUCCGACGAUCAGCACUGGACAUGUUGGUUUUAUCUUUAAAAAUGGAAAAAUAACAUCCACCGUGAAAGACCGCUCUGCAGCCAGAAAUGGUCUUCUCACGGAACAUAACAUCUGUGAAAUCAAUGGACAGCAACAGAGGAUUGAGCAUCA
B15: chr9:83661418:83661519:-|3pUTR|ENSG00000135018|msi1|FALSE|unique (ssRNA)
RNA: GGGAGUUCUACAGUCCGACGAUCUAUAGUUGGGUGACCAGAUUUUGUCCUGCAUCUGUCCAGUUUAUUUGCUUUUUAAACAUUAGCCUAUGGUAGUAAUUUAUGUAGAAUAAAAGCAUUAAAAAGAAGCAAAUCAUUUGCACUCAACAGAGGAUUGAGCAUCA
B16: chr3:41225653:41225883:+|CDS|ENSG00000168036|unk|FALSE|unique (ssRNA)
RNA: GGGAGUUCUACAGUCCGACGAUCCAUUACAACUCUCCACAACCUUUUAUUACAUCAAGAAGGAGCUAAAAUGGCAGUGCGUUUAGCUGGUGGGCUGCAGAAAAUGGUUGCCUUGCUCAACAAAACAAAUGUUAAAUUCUUGGCCAACAGAGGAUUGAGCAUCA
B17: chr21:25758092:25758193:+|CDS|ENSG00000154727|unk|total|mutant (ssRNA)
RNA: GGGAGUUCUACAGUCCGACGAUCGAAUUCAGCAUGACCGAUACCGACCUCACCACACUCAACAUUUCGGGGAGAGAAUUAUGCCGUCUCAACCAAGAAGAUUUUUUUCAGCGGGUUCCUCGGGGAGAAAUUCUCUGGAGUCAUCAACAGAGGAUUGAGCAUCA
B18: chr12:6238009:6238110:+|3pUTR|ENSG00000010278|msi1_unk|total|mutant (ssRNA)
RNA: GGGAGUUCUACAGUCCGACGAUCAUAAAAGCUGAAGUUACUUUAUGUUUGUCUUUUAAUGCUUCAUUCAAUAUUGACAUUUGCCGUUGAGCGGGGGGUUUGGUUUGCUUUGGUUUAUAUUUUUUCAGUUGUUUGUUUUUGCUUCAACAGAGGAUUGAGCAUCA
B19: chr4:124666837:124666938:-|3pUTR|ENSG00000151458|msi1|FALSE|unique (ssRNA)
RNA: GGGAGUUCUACAGUCCGACGAUCAAUGAUUUCUUGGCAGUUUAAAAAAAAUAUUUUAUAGUAGUUUAGGGAGCUGCUUUAAGUAGUUUAAAUCUGGAUUUUCCCAGUAGAAUUCUUCUCAUCUCUGGCUAAACAUGUCAGAACCAACAGAGGAUUGAGCAUCA
B20: ENSG00000133687:stop:overlap|stop_codon|ENSG00000133687|stop_codon|NA|stop_codon (ssRNA)
RNA: GGGAGUUCUACAGUCCGACGAUCUUGCCAAAUUGGAUCGCCUAGAAAAACGAUUACAAGAAGUUCGAGAAAAGGAUCAAACAUAGCACCACCGUCUGACCCAACCUCAUAGGAUAAUGUGGUGCCUCUGAAAGGGGAGUGAUGCAACAGAGGAUUGAGCAUCA
B21: chr14:94062441:94062542:-|CDS|ENSG00000089737|msi1|FALSE|unique (ssRNA)
RNA: GGGAGUUCUACAGUCCGACGAUCCCUCCAAGUAACACCGAAGCACCACCUGGAGAGACCAGAACUGAGGCCGGAGCUGAGACUAGAUCACCAGGCAAGGCUGAAGCUGAGUCUGAUGCAUUGCCUGACGAUACUGUAAUUGAGCAACAGAGGAUUGAGCAUCA
B22: chr7:88283957:88284065:-|CDS|ENSG00000127954|unk|FALSE|unique (ssRNA)
RNA: GGGAGUUCUACAGUCCGACGAUCCAGUGGUGCAGAAGUCUUGAGCUAUUCAGAAGCAGCCAAGAAGUCUGGCAUCAUAAUCAUAGCAAUCCACAGAGAGCAUUAUGAUUUUCUCACAGAAUUAACUGAGGUUCUCAAUGGAAACAACAGAGGAUUGAGCAUCA

Biological target: MSI1 full-length (mouse, UniProt Q61474 1-362)
Test: nsRBNS (natural sequence RNA bind-n-seq); RBNS binding buffer (assumed for nsRBNS): 25 mM Tris pH 7.5, 150 mM KCl, 3 mM MgCl2, 0.01% Triton X-100, 500 ug/ml BSA, 20 U/ml SUPERase-In, 4 C; UNK is unkempt and MSI1 is Musashi-1; names of the RNAs are library labels; protein concentration not given here; high values mean tight binding

Chain of UniProt Q61474 (Q61474 whole entry): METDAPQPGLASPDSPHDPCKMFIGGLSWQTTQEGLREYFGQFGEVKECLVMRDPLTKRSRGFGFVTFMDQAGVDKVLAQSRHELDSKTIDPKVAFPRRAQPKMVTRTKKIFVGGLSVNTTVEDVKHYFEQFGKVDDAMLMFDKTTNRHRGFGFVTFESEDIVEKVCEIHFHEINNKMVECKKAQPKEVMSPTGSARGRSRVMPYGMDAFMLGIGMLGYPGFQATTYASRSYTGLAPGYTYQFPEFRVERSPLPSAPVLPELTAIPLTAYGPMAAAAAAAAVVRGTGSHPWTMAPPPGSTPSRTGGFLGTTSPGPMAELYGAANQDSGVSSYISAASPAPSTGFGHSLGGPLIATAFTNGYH

Binder | binding signal [enrichment R]
B1 | 0.399
B2 | 0.516
B3 | 0.266
B4 | 0.418
B5 | 0.878
B6 | 0.314
B7 | 0.421
B8 | 5.52
B9 | 0.45
B10 | 0.686
B11 | 12.4
B12 | 5.26
B13 | 0.35
B14 | 0.47
B15 | 26.4
B16 | 0.396
B17 | 0.43
B18 | 1.21
B19 | 23.2
B20 | 0.277
B21 | 0.372
B22 | 0.311
